The values that follow come from the supplement of paper PMC11417369.

Some of the results follow.

The subject of this assay is PfSIP2 AP2 domain 1 (GST-tagged). In words: gcPBM binding intensity (ln(normalized median fluorescence intensity)); higher = stronger DNA binding. The gist of the method: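 Binding of GST-tagged P. falciparum DNA-binding domains, expressed in E. coli and used at about 25 μg on average, was carried out for 1 h in 1× PBS containing 1% milk, 0.2 mg/ml BSA, 0.5% salmon testes DNA and 0.03% Triton X-100. The target was an Agilent 4 × 180k array of primer-extended double-stranded 36-bp intergenic genomic probes plus negative controls, read with Alexa488 anti-GST antibody at 488 nm. Binding intensity is the highest Masliner-normalised natural-log median intensity across replicate spots of either probe orientation.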
Consider “ACATACATACCCCCACGTACGTACCGAAACACCACC [XGTACX_site1982]”, for which the “gcPBM binding intensity (ln)” value was determined as 8.09.
Regarding “CAAAGAACTTATAGGGTGCTTTACTTATAAGTAAAT [GTGCAC_site9579]”, the “gcPBM binding intensity (ln)” value came to 8.52.
For the sequence “ATAGCACATTTTTAAGCACACGTTTATTATATATAT [CACACA_site6084]”, the “gcPBM binding intensity (ln)” value worked out at 7.32.
Then “CAAAAATATATTTTTTGTACACAAAAAAAAAATAAA [XGTACX_site5229]”, with 7.27; and “AAAACTATTAAATGTAGTACATAATTATTGAAATAA [XGTACX_site8716]”, with 6.93; and “AAATACATATCATGTAGTACATATATATGTAGGTTA [XGTACX_site5392]”, with 6.96.
Regarding “TGTTGTATTTTTACAACACACATTTAATCCATTTAA [CACACA_site1507]”, the “gcPBM binding intensity (ln)” value is 6.79.
As to “CTTATATATTGGGATAGTACTTTTAACTAAATAGAA [XGTACX_site5900]”, the “gcPBM binding intensity (ln)” value was 7.02.
Turning to “ACTTTACGAATTAAGAGTACTTATTTAAGGAACACT [XGTACX_site7919]”, the “gcPBM binding intensity (ln)” value was found to be 7.08.
As to “TTTTTATTGAGATACTTATATAATTTTATGAATAAA [XGTACX_negctrl_site311]”, the “gcPBM binding intensity (ln)” value was 6.76.
Take “TTTTTTTGCTCTTTTTATATATATATATATATATAT [GTGCAC_negctrl_site70]”: the “gcPBM binding intensity (ln)” value was found to be 8.94.
With “TTTGAAAAGTTGAAATGTACACATTTACACATATTT [XGTACX_site1641]”, the “gcPBM binding intensity (ln)” value came out at 6.76.
In the case of “ATCAACATTATGGTTAGTACTTAGTGAATTGTTAAT [XGTACX_site4926]”, the “gcPBM binding intensity (ln)” value is 7.01.
Turning to “GTGTAATATATTTTTCGTACATATTATATATATATA [XGTACX_site1675]”, the “gcPBM binding intensity (ln)” value came to 8.69.
Regarding “TTATACACCTTTCATTGTACATATAATTTATATTCT [XGTACX_site8685]”, the “gcPBM binding intensity (ln)” value amounted to 7.35.
For “TCTTCTAATTTACCTACACACAGGAGATATATAAAT [CACACA_site6276]”, the “gcPBM binding intensity (ln)” value stood at 7.28.
Consider “TATATATATATATATTGTACAAAATATTTATATGTT [XGTACX_site436]”, for which the “gcPBM binding intensity (ln)” value is 9.43.
As for TAATTAATTTATTAGTTGCACTGTACCATTAGAGTA, the figure is 8.72; as for “GTTCATAAATTAAACACACACACACCCCTGGATACC [CACACA_site3331]”, 7.78; as for “TATATTACTTTGTGTTGTACGGAAATATATATATAT [XGTACX_site4309]”, 8.7.
Regarding “AATATTCAATATATATATATATATAATATTAATATA [GTGCAC_negctrl_site571]”, the “gcPBM binding intensity (ln)” value is 7.29.
Consider “ATATTTTATTTAATTACACACAATATTGCAATTTGT [CACACA_site669]”, for which the “gcPBM binding intensity (ln)” value stood at 7.12.
As to “AAGGATTTTTTATACACACACTAACTAATGTATATA [CACACA_site7163]”, the “gcPBM binding intensity (ln)” value was 6.91.
“TAATACCATAACAAGTGTACATAAATAATTATTGTA [XGTACX_site4949]”: the “gcPBM binding intensity (ln)” value was determined as 7.11.
As to “AAAAAAAATATAATATGTACATATCTATATATCAAC [XGTACX_site4881]”, the “gcPBM binding intensity (ln)” value came out at 6.99.
Regarding “TATACATATGAAAATACACACATACATACAGATATA [CACACA_site5002]”, the “gcPBM binding intensity (ln)” value came to 7.01.
As for “TTGTTTTTAATATCGGTGCAATGGAAAGAAAAGAAG [GTGCAC_site9494]”, the “gcPBM binding intensity (ln)” value stood at 9.41.
For the sequence “TACGTAAAATAATTGAGTACATAATTATATATATAT [XGTACX_site5361]”, the “gcPBM binding intensity (ln)” value stood at 8.92.
For “AAAAATAATCATTAGGTGCAAAAAATATATATATAT [GTGCAC_site9631]”, the “gcPBM binding intensity (ln)” value was 9.96.
With “TTTTTTTTTTTAAATTCACACAATATATAAATATTG [CACACA_site5201]”, the “gcPBM binding intensity (ln)” value stood at 6.84.
As for “AACAAATATATATGTAGTACATGTTGTAGATAATTT [XGTACX_site24]”, the “gcPBM binding intensity (ln)” value was found to be 7.
Then “AGAAAAATTATTTTGCGTACATATTTACAATAAAAA [XGTACX_site2144]”, with 7.05; and “TTTAAAATATATAGTACACACGTGAACACAAATACA [CACACA_site4392]”, with 7.13; and “GTACATTATTTATATACACACAAAGAAAAATATACA [CACACA_site3452]”, with 7.14.
On to “TAAAGCATATTATAAACACACACTGTATAAAGATAT [CACACA_site296]”, for which the “gcPBM binding intensity (ln)” value turned out to be 6.98.
For “TTTTTCAGAAAAGAAACACACATATTTATATTTATA [CACACA_site7167]”, the “gcPBM binding intensity (ln)” value was determined as 6.7.
Take “TATATGTATATATATTAACACACAAAAAAAAAAAAA [CACACA_site8534]”: the “gcPBM binding intensity (ln)” value was found to be 7.04.
Consider “TAAACAAATAAATAAACACACAATATCTGTATTTAT [CACACA_site5978]”, for which the “gcPBM binding intensity (ln)” value came to 6.83.
Then “TAACCTATAATATTCACACACATATAAATATTATAG [CACACA_site6592]”, with 7.01; and “ATTAAATCGATATATACACACATGTTTGGTATATTC [CACACA_site7285]”, with 6.78.
Then “TTAAAATAAAGTAGTGGTACAAAAAAAAAAAAAAAA [XGTACX_site6322]”, with 7.08; and “AGTAATAGTTTGTGCACACTCAAGTATATCATATAT [CACACA_site4034]”, with 9.56.
Then “TTTTACTTAAAACACACACACACAAAAAAAAAAAAA [CACACA_site947]”, with 7.08; and “TTTTTTATTTTAAAAACATGCATAAAATATAATAGT [TGCATGCA_site762]”, with 7.49.
For the sequence “AGATAAAAAAAGTACACACACACATATATTTATATA [CACACA_site7437]”, the “gcPBM binding intensity (ln)” value came out at 7.48.
Then “TATATATTTAATTTCACACATATATATAATTATTAT [CACACA_site4936]”, with 7.03; and “ATACACACTTAAAAAAGTACTTAACTACATGAATTG [XGTACX_site1203]”, with 7.13; and “ATATTATATATAAAATGTACATTTAAAAATATTATA [XGTACX_site889]”, with 7.05.
On to “TTTTTTTTTTTTTAAACATGCATAATAAATATAATA [TGCATGCA_site265]”, for which the “gcPBM binding intensity (ln)” value was 7.05.
As for “TTTTTTATTTTGTGCACACACATAAAAATATATATA [CACACA_site761]”, the figure is 9.42; as for “TTGTTTTCTTATTATTACTACAATACTTAAGTCAGA [TGCATGCA_negctrl_site184]”, 7.02; as for “TAATCATAACTTGATACGCACACGTTATATAAATAA [CACACA_site1579]”, 7.02.
As for “TATTTATTTATGGACACACATACAAATCTTCCAGAC [CACACA_site942]”, the figure is 7.14.
For the sequence “TTTTGTTGGATACAAAAATTACAAATTATTTAAAAA [TGCATGCA_negctrl_site532]”, the “gcPBM binding intensity (ln)” value stood at 6.69.
With “GAATACATAATAACATGTACACACATTCTTCTATAA [XGTACX_site8725]”, the “gcPBM binding intensity (ln)” value worked out at 7.04.
As for “TATATATATAGAAATGCATGTTAATAAAAGTTATAA [TGCATGCA_site947]”, the figure is 8.13; as for “TATCATAAAAAATATACACACAAAGGATATTTATAT [CACACA_site6841]”, 7; as for “TATGAACACCAACACACACACAAAAAAAAAAAAAAA [CACACA_site2013]”, 7.3.
Then “AAAAAAAAATCAAAATGTACTTATTTTTATAATAAT [XGTACX_site4712]”, with 6.89; and “TAATTATGCCAACACACACACACACCCAACTAAAAA [CACACA_site8823]”, with 7.32; and “AACATCAATTTATTTTCTTACATTATACGATTCATG [CACACA_negctrl_site1300]”, with 6.89.
In the case of “ATGATGTGCAAGAGTAGTACACAATTTTGGGTTTAT [XGTACX_site501]”, the “gcPBM binding intensity (ln)” value came to 7.73.
For the sequence “AAACATAAGAAACACACACACATATATATATATATA [CACACA_site3642]”, the “gcPBM binding intensity (ln)” value came out at 9.32.
As for “ATTCTTATAACAAGAAGTACAAATATATGTATATAT [XGTACX_site4528]”, the figure is 7.17; as for “TTTTTTTTTAAGATGAAGATCAATATATAAATATAT [CACACA_negctrl_site1538]”, 6.72.
Regarding “AGAATATCAAAATAAAGTACATTTATTATATATATG [XGTACX_site7100]”, the “gcPBM binding intensity (ln)” value worked out at 7.15.
As for “TTTTCTCTCAAAAAATGTACATAATATATATATTTT [XGTACX_site4861]”, the “gcPBM binding intensity (ln)” value turned out to be 7.1.
Consider “AAAAAAAAAAAACATACACACATACATACCTATATA [CACACA_site6575]”, for which the “gcPBM binding intensity (ln)” value was determined as 6.91.
Then “CGTATATATAAATACACACACATATATATCTGTAAA [CACACA_site4272]”, with 7.14; and “TTAATTTATTTATGCACACATATATAATTACCCATA [CACACA_site682]”, with 7.53.
With “AATTAAATTACTTATACACACATAAAATGGGTGTAT [CACACA_site4703]”, the “gcPBM binding intensity (ln)” value came to 6.77.
As for “AAAAAAAAAAAAAAGCGTACAAATAAAATATATTTA [XGTACX_site7195]”, the figure is 7.21; as for “TAAATGTCCTTATTTGCACACACACCCATAAGAAAT [CACACA_site3185]”, 7.38.
As for “CCTTTTTTGTTTTATGCACACCATATAACCAAGGCT [CACACA_site7893]”, the figure is 7.84; as for “TATATATAAAAATATACACACACAAATGTATATATA [CACACA_site7956]”, 6.87.
Regarding “ATGTAATGAAACATTGCACACATATAATAATATAAT [CACACA_site8402]”, the “gcPBM binding intensity (ln)” value came out at 7.15.
Then “TTTTTATATGCGTATTGTACATTATACATATATATA [XGTACX_site6786]”, with 7.35; and “TTTACATTTATGTGCACACATTCCATTTGAAAGTAA [CACACA_site1953]”, with 9.2.
For “AATATTTTTTTTTAAACATGCATATTTGCATTACCC [TGCATGCA_site437]”, the “gcPBM binding intensity (ln)” value turned out to be 6.99.
On to “TGTATATATTTTAATAGTACTCATATATATATATAT [XGTACX_site7216]”, for which the “gcPBM binding intensity (ln)” value came to 9.43.
For the sequence “ATAACTTTCTATACATGTACACATATATGGTATTTT [XGTACX_site7535]”, the “gcPBM binding intensity (ln)” value was 7.3.
“ATAAATTTTTTATGAACACACAAATACACCCACTCA [CACACA_site5465]”: the “gcPBM binding intensity (ln)” value was determined as 7.41.
As to “CTTATAAAAAAAATTGCACACATATTATACAGGACG [CACACA_site8133]”, the “gcPBM binding intensity (ln)” value was found to be 7.5.
Then “ATTGTGTTGACGGGTGACCCTTCCAGAGAAATAGAA [CACACA_negctrl_site1362]”, with 6.97; and “TTTTTTTTAATGAGAAGTACGGTCTTTCAATGTCTT [XGTACX_site6773]”, with 6.76.
Then “CATTAACAAATAAATGCACACATATATATAAATAAT [CACACA_site7892]”, with 7.22; and “AATTTATTAGATAGATGTACATTTTAATAAAAGTAG [XGTACX_site6819]”, with 7.19; and “TAAAAATTAAAACTGGGTACAAATTTATAGATAGCC [XGTACX_site8075]”, with 7.06.
Consider “TCCCCTTAATTTAAAACACACAAACAAATAAGTTAG [CACACA_site5973]”, for which the “gcPBM binding intensity (ln)” value was found to be 6.91.
